# Reference: PubChem BioAssay AID485294 (National Center for Advancing Translational Sciences (NCATS), 2010)
# Among all 370,000 compounds or so, about 150 (0.041%) were called active. The inconclusive results got no clear call from the source; some entries with a clear call stand among them for comparison. Calls follow the shape of the dose curve; as a rule, active = well fitted inhibition curve with a large enough effect; inconclusive = small, poorly fitted or top-dose-only effect; inactive = flat fitted curve, though single readings scatter. Potencies of inconclusive entries are left out as doubtful fits.
# Biological target: Beta-lactamase (Escherichia coli (strain K12)) (UniProt P00811)
# UniProt P00811, sequence (P00811 whole entry, looked up): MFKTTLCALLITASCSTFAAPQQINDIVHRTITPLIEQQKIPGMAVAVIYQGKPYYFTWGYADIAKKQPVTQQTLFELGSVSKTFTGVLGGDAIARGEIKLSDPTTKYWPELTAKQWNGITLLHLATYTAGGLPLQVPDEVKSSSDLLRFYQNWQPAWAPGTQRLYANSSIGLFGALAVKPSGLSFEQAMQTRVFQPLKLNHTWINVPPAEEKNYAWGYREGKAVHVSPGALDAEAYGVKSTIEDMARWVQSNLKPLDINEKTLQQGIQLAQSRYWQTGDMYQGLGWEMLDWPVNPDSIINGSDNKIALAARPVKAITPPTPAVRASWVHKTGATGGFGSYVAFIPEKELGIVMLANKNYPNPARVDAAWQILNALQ
# Test: qHTS Inhibitors of AmpC Beta-Lactamase (assay with detergent); also: nearly all actives have a fitted effect of over 25% in size;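 as to activity change, negative = inhibition: 0% = no-compound wells and -100% = no-enzyme wells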
# Conditions: AmpC hydrolysis of nitrocefin, absorbance 480 nm, 0.01% Triton; activity change, negative = inhibition: at 114 µM (top of the series)
# Summary of the method: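 20 mM phosphate pH 7.0 + 0.01% (detergent screen) or 0.0001% Triton X-100; 5.3 nM AmpC reagent; cpd preinc 15 min RT; nitrocefin (800 uM stock) to start; A480 q20 s × 4 min; Activity was normalised to no-enzyme and no-compound control wells.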
# Potency is read from the fitted curve at half-maximal effect; tags tell the direction and shape of the fitted curve.
SMILES,Potency,"activity change, negative = inhibition"
c1nc2n(n1)C1=C(CCCC1)C1(CCCCC1)N2,"inconclusive [inhibitor, partial curve, poor fit]",
Nc1ccc2ncccc2c1N,"inconclusive [inhibitor, partial curve, poor fit]",
COCCNc1oc(Cc2cccc3ccccc23)nc1C#N,,inactive: 5.51%
O=C(OCC(=O)N1CCCC1)c1c(Cl)cccc1Cl,"inconclusive [inhibitor, partial curve, poor fit]",
CCOC(=O)C1=C(C)N(C)C(=O)NC1c1cc2c(cc1[N+](=O)[O-])OCO2 (centres undefined),"inconclusive [inhibitor, partial curve, poor fit]",
O=C(Nc1nccs1)C1CCN(S(=O)(=O)c2cccnc2)CC1,"inconclusive [inhibitor, full curve, poor fit]",
Cc1ccc(S(=O)(=O)N2CCCCC2)cc1NC(=O)COC(=O)Cc1ccc(Cl)cc1,"inconclusive [inhibitor, full curve]",
Cn1c(SC/C=C/c2ccccc2)nnc1-c1ccco1,"inconclusive [inhibitor, partial curve, poor fit]",
CCc1ccccc1NC(=O)CN(C)C(=O)CSc1nnc(Nc2ccc(C)cc2)s1,"inconclusive [inhibitor, full curve, poor fit]",
CCC(=O)c1ccc(OCC(=O)OCC(=O)c2cc(C)n(CC3CCCO3)c2C)cc1 (centres undefined),"inconclusive [inhibitor, single point]",
CCOC(=O)N1CCC(N(CCN(C)C)C(=S)Nc2cc(C)cc(C)c2)CC1,"inconclusive [inhibitor, single point]",
CCOCN(C(=O)Cn1cnc2ccccc21)c1c(C)cccc1CC,,inactive: 9.25%
Oc1ccccc1Nc1nc(NCC2CCCO2)c2ccccc2n1 (centres undefined),,inactive: -3.99%
COCC(=O)Nc1ccccc1-c1ccccc1,"inconclusive [inhibitor, partial curve]",
CCCn1c(-c2cccs2)nc2ccccc21,,inactive: -0.325%
COCC(C)NCc1ccccc1C (centres undefined),"inconclusive [inhibitor, full curve, poor fit]",
CCOC(=O)C1C(=O)N(C(=O)c2cncc(Br)c2)CC1c1ccccc1 (centres undefined),"inconclusive [inhibitor, partial curve, poor fit]",
CCSc1nc2c(c(=O)[nH]1)C(c1cccs1)C(C(=O)OC)=C(C)N2 (centres undefined),"inconclusive [inhibitor, partial curve, poor fit]",
CCc1ccc(C(C(=O)NCc2ccc(F)cc2)N(C(=O)c2csnn2)C2CC2)cc1 (centres undefined),"inconclusive [inhibitor, full curve]",
CC(=O)Nc1ccc(S(=O)(=O)N2CCC(C(=O)NCc3cccnc3)CC2)cc1,"inconclusive [inhibitor, partial curve, poor fit]",
CCOC(=O)Cn1nnnc1C(CC)N(Cc1ccccc1)Cc1cc2cc(C)ccc2[nH]c1=O (centres undefined),"inconclusive [inhibitor, full curve, poor fit]",
CCOC(=O)c1sc(=NC(=O)c2ccc(OC)c(OC)c2)n(C)c1C,"inconclusive [inhibitor, full curve, poor fit]",

SMILES,Potency,"activity change, negative = inhibition"
CCOc1ccc(NC(=O)C23CC4CC(C2)CC(c2ccccc2)(C4)C3)cc1,"inconclusive [inhibitor, partial curve, poor fit]",
CCOCCCNC(=O)Cn1nc(-c2ccccc2)ccc1=O,"inconclusive [inhibitor, full curve, poor fit]",
CC(C)Cn1c(N)c(C(=O)COC(=O)C2Cc3ccccc3CN2S(C)(=O)=O)c(=O)n(C)c1=O (centres undefined),,inactive: 5.95%
COc1ccc(C(=O)Nc2cccc(OC(=O)c3ccco3)c2)cc1,,inactive: -2.86%
O=C(NCCO)C(=O)NCC1CCCN1S(=O)(=O)c1cccs1 (centres undefined),"inconclusive [inhibitor, full curve, poor fit]",
Cn1cnnc1SCC(=O)Nc1ccccc1C(=O)NC1CCCC1,"inconclusive [inhibitor, full curve, poor fit]",
Cc1ccc(C2=C/C(=C/c3cccnc3)C(=O)O2)c(C)c1,,inactive: -4.84%
CN(C)c1cccc(C(=O)NN2C(=O)NC3(CCCCC3)C2=O)c1,"inconclusive [inhibitor, single point]",
COc1ccc(S(=O)(=O)n2c([N+](=O)[O-])cnc2C)c(C)c1C,"inconclusive [inhibitor, partial curve, poor fit]",
CCc1ccc(OC)c(S(=O)(=O)N2CCN(C(=O)c3ccco3)CC2)c1,,inactive: -6.01%
O=C(Nc1cccc(NC(=O)c2sc3ccccc3c2Cl)c1)c1ccco1,"inconclusive [inhibitor, partial curve, poor fit]",
COc1cccc(CNC(=O)CN2C(=O)CSc3ccc(S(=O)(=O)N4CCCC4)cc32)c1,inactive,
CCc1ccc(NC(=O)CC2C(=O)N(c3ccc(OC)cc3)C(=O)N2CCOC)cc1 (centres undefined),"inconclusive [inhibitor, partial curve, poor fit]",
O=C(CSc1nc2ccccc2s1)N1c2ccccc2Sc2ccccc21,"inconclusive [inhibitor, partial curve, poor fit]",
CN(c1ccc(OCC(=O)OCc2nnc(-c3ccccc3)o2)cc1)S(=O)(=O)c1ccc(Cl)cc1,"inconclusive [inhibitor, partial curve, poor fit]",
CCN1CCc2c(C#N)c(NCc3ccccc3)nc(N(CC)CC)c2C1,"inconclusive [inhibitor, single point]",
O=S(=O)(Nc1cccnc1)c1cc(Cl)ccc1Cl,"inconclusive [inhibitor, partial curve, poor fit]",
COc1nc(Oc2ccc(C(=O)O)cc2)nc(Oc2ccc(C(=O)O)cc2)n1,"inconclusive [inhibitor, full curve, poor fit]",
CCS(=O)(=O)c1ccc(-c2cccc(NC(=O)COc3ccccc3)c2)nn1,"inconclusive [inhibitor, full curve, poor fit]",
Cc1ccnc(NC(=O)Nc2ccc(F)cc2)c1,"inconclusive [inhibitor, partial curve, poor fit]",
Cc1nn(Cc2ccc([N+](=O)[O-])cc2)c(=O)n1-c1ccccc1Cl,"inconclusive [inhibitor, partial curve, poor fit]",
CCc1ccc(NC(=O)CSc2ccccn2)cc1,,inactive: 6.86%

SMILES,Potency,"activity change, negative = inhibition"
CCOC(=O)c1[nH]c2ccc(C)cc2c1N,,inactive: -8.29%
C/C(=N\NC(=O)c1ccc(COc2ccccc2)cc1)c1ccncc1,,inactive: -4.79%
CCOc1ccc(-c2c(C(=O)N/N=C/c3ccncc3)nnn2-c2nonc2N)cc1,"inconclusive [inhibitor, partial curve, poor fit]",
CCOc1ccc(CCNC(=O)CCc2nnc3ccc(N4CCOCC4)nn23)cc1OCC,"inconclusive [inhibitor, full curve, poor fit]",
CCOC(=O)c1cc(NC(=O)c2c(C)noc2C)cc(C(=O)OCC)c1,"inconclusive [inhibitor, full curve]",
COc1ccc(CNC(=O)c2cc(-c3ccc(OC)c(OC)c3)on2)cc1,"inconclusive [inhibitor, full curve, poor fit]",
CCS(=O)(=O)N1Cc2ccccc2CC1C(=O)Nc1nnc(C2CC2)s1 (centres undefined),"inconclusive [inhibitor, single point]",
Cc1ccccc1Cn1c(=O)sc2ccccc2c1=O,"inconclusive [inhibitor, full curve, poor fit]",
O=C(NCC(=O)N1CCN(c2ccc(C(F)(F)F)cn2)CC1)c1ccc(Br)o1,"inconclusive [inhibitor, full curve, poor fit]",
COc1cccc(NC(=O)Cn2c(=O)n(Cc3ccco3)c(=O)c3cc(OC)c(OC)cc32)c1,,inactive: -0.526%
CCN(CC)S(=O)(=O)c1cccc(NC(=O)COC(=O)c2ccc(Br)o2)c1,"inconclusive [inhibitor, full curve, poor fit]",
CCC(C(=O)N1CCC2(CC1)OCCO2)c1ccccc1 (centres undefined),"inconclusive [inhibitor, partial curve]",
CC(=O)C1=C(O)C(=O)N(c2cc(C(C)(C)C)on2)C1c1ccc(Br)cc1 (centres undefined),"inconclusive [inhibitor, full curve]",
CCNc1nc(NCC)nc(C(=O)OCCO)n1,"inconclusive [inhibitor, full curve, poor fit]",
Nc1nnc(SCCN2C(=O)c3ccccc3S2(=O)=O)s1,"inconclusive [inhibitor, partial curve, poor fit]",
C=CCOc1ccccc1CN1CCN(CCc2ccccc2)C(CCO)C1 (centres undefined),"inconclusive [inhibitor, full curve, poor fit]",
Cc1ccc(NCc2cccn2-c2nnc(N3CCC(C(=O)NCc4ccc(F)cc4)CC3)s2)cc1,,inactive: 3.64%
Cn1c(NC(=O)C[n+]2cc(-c3ccc(F)cc3)n3c2CCC3)cc(=O)n(C)c1=O,"inconclusive [inhibitor, full curve, poor fit]",
O=C(CSc1nnc2c(Cl)cc(Cl)cn12)N1CCOCC1,"inconclusive [inhibitor, full curve, poor fit]",
Cc1ccc(NC(=O)CSc2nnc(COc3ccc(Cl)cc3)o2)c(C)c1,,inactive: 16.3%
